This is one part of the list. At the low end of the ranking, values are background and their order means little.
Target: SIX1 homeodomain (reference allele) (UniProt Q15475)
Assay: universal protein binding microarray
Details: Universal all-10-mer PBM (8x60K, AMADID 030236), 300 nM GST-tagged protein, Alexa Fluor 488 anti-GST; buffer, salt, pH and temperature not stated; high values mean tight binding; most listed sequences are background and not binding sites; double strand, one strand shown

Sequence	binding signal [E-score]
ACCTTAAC	-0.0636
GGGGGCTA	-0.0415
AGGATGCA	0.0134
AAATGAGA	0.16
CTTAGAGC	-0.0596
AGTTACGG	-0.185
CATGTGTC	-0.0455
AAGAAGGA	-0.0489
ATATGAGG	0.156
CAGGGACC	-0.154
CCGGCCTA	-0.0768
CAAACGTC	-0.165
AAACCCCA	0.147
AATGTCGG	-0.0726
AAAAGACG	-0.181
GCTAGACA	-0.085
ATTCCACC	0.164
CCCGCTCA	0.00145
ATCCCGTG	0.217
CTGGCAGC	-0.293
AACCTTTC	-0.155
TTCTAGAA	-0.0938
GTTACTGA	0.0553
CTAACAGA	-0.0108
GAGCGTAC	-0.129

Sequence	binding signal [E-score]
CAATAATC	0.0942
AGTTATAG	-0.0982
GCCTGCGC	-0.174
AGCCGTTG	-0.141
GGTTATGA	0.132
ACGCCTTC	-0.154
CCCCGGGC	-0.0863
ATTGAGAA	0.0916
ATTCGGAC	-0.0388
CCTCTTGA	0.00803
CATCCGCA	0.0493
GACATAAC	-0.242
AATGGCTC	0.0159
ATAACCAC	0.191
CCTGGTCC	-0.0157
AACCCCGT	0.121
TAAACTCA	-0.0938
ATAACTAT	0.0285
CACTTTGA	-0.0844
CCCGCCGG	0.178
GAGCTTGA	-0.0587
ATTTTTCC	-0.0759
ACACTCAA	-0.0785
CAACGCCA	-0.0862
AAGCTCCC	-0.185

Sequence	binding signal [E-score]
CCCTCCAA	-0.045
AACGGGCA	0.0321
GCACTTAC	-0.232
CAGGTCTC	-0.044
AGATGGCC	-0.124
AGTTTAGC	-0.194
TATAAACA	0.134
ACCGACCG	-0.0081
ATGAATAA	0.00218
CCAATACC	0.324
CTGATAGA	0.000815
AAAGTACA	-0.112
AGCGCTCA	-0.168
ATGCAACA	-0.127
CTCGAGTC	-0.225
ACCAATCA	-0.0895
AGACCCGC	0.0366
ATATTTGC	0.0788
ACCTACAC	0.00607
AACTACCT	-0.223
CTCCATGC	-0.0693
AGGCCTTC	-0.39
GCGTCAAA	-0.0847
CTCTAAAC	-0.198
CAGCTGGG	0.0839

Sequence	binding signal [E-score]
AAGGAACC	-0.0496
AAGACGAA	-0.152
AATGTCAT	-0.255
GATTCGAA	-0.0371
ATCCATTC	0.287
ATGATCTA	0.346
CGTGAACA	-0.0745
GCATCCGC	0.14
CCCGAAGG	0.0834
AACCGCGG	0.058
GACTGTTA	-0.18
AGTGTACA	-0.118
GAGGCAAA	-0.122
AGCCGCAG	-0.133
AAATGCCA	-0.213
CCTACCGA	0.0487
CCCCCGAA	0.11
CCGGTCCA	-0.191
AGACAAGG	-0.0177
ACGACGAC	-0.364
GCGGCTAC	0.0202
TCAACTAA	0.0551
ATTATTGC	-0.00181
ACGTAGTC	-0.202
GGGACGGA	0.00348

Sequence	binding signal [E-score]
ATAGTATG	0.258
CCGTGAAG	-0.244
GAAGAGAC	0.0397
ACGCGTCA	-0.0604
GTCTTGGA	-0.131
GCCTTACC	-0.162
CACTATTA	0.0807
AACGTTGA	-0.317
ACCCACCA	-0.0266
ACACCCTA	0.31
GAAAACGC	-0.374
AGAAATAT	-0.00364
ATGCACTA	0.159
GTATAGAC	0.276
CAGAAGTA	-0.0554
CCGATAAA	0.0259
GTAATGTA	-0.255
CCACCTTC	0.127
AACAGTAA	-0.178
GAAGGCTA	-0.0602
CTTAGTCA	-0.314
AGCTTCGC	-0.231
CTGCCACA	-0.259
AAACCGAT	0.184
GTTAAGTA	-0.0281

Sequence	binding signal [E-score]
TGTGAAAA	-0.238
CGCATACA	0.0807
AATTATAT	0.167
ATTGCCGC	-0.245
ATACTGAT	0.349
AAATGACC	-0.236
AGCGATGC	-0.0345
GCATTAAC	-0.0109
CGCCTCGC	-0.104
ACAAGTCG	-0.0906
AAGTACCT	-0.0949
ATTACGCG	0.111
ATTGGCTA	0.122
GGGCCACC	-0.21
AGAATCGC	-0.034
GACGTTTA	-0.157
ACTCGAAT	-0.237
GTCTACTA	-0.041
AACAGTTC	-0.194
ACCTTACT	-0.00958
ACGACCCA	-0.0702
GGATCAAC	0.39
CCGAAAGA	-0.15
CTGTCTAA	0.0106
AGTTAGCA	-0.235

Sequence	binding signal [E-score]
GAACAATC	-0.00307
TAAGCATA	0.0115
AGGCGGCA	-0.174
ACGGATCG	0.354
ATGTATCG	0.38
AATGAGTA	0.0975
GCAGTCTA	-0.196
ATCCTTCC	0.255
TCCCTCAA	0.0328
GTGAGGAA	-0.132
GGTGGTTA	-0.0976
CACACTCG	0.175
TATAATGA	0.112
AGGAACCA	-0.122
CATCTGCC	0.0408
AGCGAGTC	-0.278
ACGCATGG	0.206
CAGTTGGA	-0.0924
GCCCTAGA	-0.229
AGTCATAG	-0.0693
ATCGTGTA	0.272
CATCTCAC	0.244

Source: article PMC10668032
